The values below come from article PMC4081100.

What all share (assay): universal protein binding microarray (PBM)
Common to all, as to details: transcription factors of Arabidopsis thaliana; high values mean tight binding; most listed sequences are background and not binding sites; double strand, one strand shown

One assay has as its target GST-NTL6(1-168) (UniProt Q9SCK6).
The target of the next assay is T1, GST-ANAC019 NAC domain (UniProt Q9C932).
T1 sequence: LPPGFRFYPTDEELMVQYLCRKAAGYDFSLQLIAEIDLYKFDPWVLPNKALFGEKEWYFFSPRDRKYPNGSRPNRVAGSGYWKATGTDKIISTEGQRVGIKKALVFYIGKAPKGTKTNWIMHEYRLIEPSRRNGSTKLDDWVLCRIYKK

A further assay addresses T2, GST-ATAF1 NAC domain (UniProt Q39013).
T2 sequence: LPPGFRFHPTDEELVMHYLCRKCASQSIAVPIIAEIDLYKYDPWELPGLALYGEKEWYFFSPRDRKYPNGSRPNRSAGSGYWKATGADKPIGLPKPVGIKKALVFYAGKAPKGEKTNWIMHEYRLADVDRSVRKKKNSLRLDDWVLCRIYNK

In assay [1] the target is T3, GST-ANAC092(1-285) full length (UniProt Q9FKA0).
T3 sequence: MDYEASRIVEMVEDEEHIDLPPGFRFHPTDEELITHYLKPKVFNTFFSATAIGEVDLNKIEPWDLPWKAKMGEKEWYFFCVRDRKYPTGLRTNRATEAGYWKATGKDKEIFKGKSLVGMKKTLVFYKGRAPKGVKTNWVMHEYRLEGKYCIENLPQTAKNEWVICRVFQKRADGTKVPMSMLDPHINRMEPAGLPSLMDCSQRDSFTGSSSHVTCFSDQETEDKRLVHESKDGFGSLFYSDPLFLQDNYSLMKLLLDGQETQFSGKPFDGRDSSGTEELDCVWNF

Another assay deals with T4, GST-NAP(1-166) (UniProt O49255).
T4 sequence: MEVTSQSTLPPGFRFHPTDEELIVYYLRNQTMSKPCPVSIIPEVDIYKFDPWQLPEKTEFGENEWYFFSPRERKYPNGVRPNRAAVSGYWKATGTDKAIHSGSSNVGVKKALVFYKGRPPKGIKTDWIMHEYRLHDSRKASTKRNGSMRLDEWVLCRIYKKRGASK

In another assay the target is T5, GST-NST2(1-184) (UniProt Q9M274).
T5 sequence: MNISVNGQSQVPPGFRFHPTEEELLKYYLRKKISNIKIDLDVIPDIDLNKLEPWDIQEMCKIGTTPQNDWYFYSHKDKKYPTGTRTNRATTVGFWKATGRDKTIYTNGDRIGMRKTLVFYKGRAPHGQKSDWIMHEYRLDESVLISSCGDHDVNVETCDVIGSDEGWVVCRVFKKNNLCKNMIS

Another assay deals with T6, GST-VND3 NAC domain (UniProt Q9FH59).
T6 sequence: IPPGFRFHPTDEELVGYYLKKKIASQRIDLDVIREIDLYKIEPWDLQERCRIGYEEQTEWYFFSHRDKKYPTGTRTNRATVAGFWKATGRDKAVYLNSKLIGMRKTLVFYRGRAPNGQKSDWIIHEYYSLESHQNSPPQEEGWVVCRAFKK

For assay [2], the target named is T7, GST-VOZ2 (Arabidopsis thaliana) (UniProt Q9SLB9).
T7 sequence: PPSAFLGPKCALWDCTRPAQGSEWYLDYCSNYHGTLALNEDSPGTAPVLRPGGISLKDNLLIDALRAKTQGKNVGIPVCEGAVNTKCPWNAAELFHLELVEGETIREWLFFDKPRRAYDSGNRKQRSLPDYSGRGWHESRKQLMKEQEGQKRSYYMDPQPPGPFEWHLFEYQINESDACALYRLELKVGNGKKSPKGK

The next assay has as its target GST-WRKY1(266-371) (UniProt Q9SI37).
The next assay addresses T8, GST-ANAC055(1-171) (UniProt Q9LDY8).
T8 sequence: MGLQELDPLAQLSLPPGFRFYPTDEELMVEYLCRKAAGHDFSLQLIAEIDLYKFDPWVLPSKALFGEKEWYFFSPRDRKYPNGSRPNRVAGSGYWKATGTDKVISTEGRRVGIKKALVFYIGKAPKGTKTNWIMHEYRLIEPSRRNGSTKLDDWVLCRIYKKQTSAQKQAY

Another assay deals with T9, GST-NTL8 NAC domain (UniProt Q9XIN7).
T9 sequence: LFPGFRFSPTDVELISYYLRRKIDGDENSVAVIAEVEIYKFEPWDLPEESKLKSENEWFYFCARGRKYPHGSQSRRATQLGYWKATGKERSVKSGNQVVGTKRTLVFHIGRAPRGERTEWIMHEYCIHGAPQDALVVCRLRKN

Another assay concerns the target T10, GST-VND7 NAC domain (UniProt Q9C8W9).
T10 sequence: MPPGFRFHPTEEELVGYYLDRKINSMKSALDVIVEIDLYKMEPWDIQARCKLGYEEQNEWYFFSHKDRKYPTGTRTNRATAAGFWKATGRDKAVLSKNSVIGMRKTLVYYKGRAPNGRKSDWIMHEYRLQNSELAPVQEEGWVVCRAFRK

The next assay concerns the target T11, GST-ANAC092(1-176) (UniProt Q9FKA0).
T11 sequence: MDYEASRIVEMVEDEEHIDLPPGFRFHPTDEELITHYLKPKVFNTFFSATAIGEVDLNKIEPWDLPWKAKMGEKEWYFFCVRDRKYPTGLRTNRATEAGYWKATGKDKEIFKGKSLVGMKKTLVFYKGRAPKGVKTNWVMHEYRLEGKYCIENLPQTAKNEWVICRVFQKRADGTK

The entries are a selection whose mix differs from that of the whole data set. For some of these results: At the low end of the ranking the order means little. The list shows a part of the results. For some of these results: The source does not settle which construct or isoform was used.

As to CTTTCCTC, the binding signal with GST-NTL6(1-168) was 0.104 E-score; with GST-ANAC019 NAC domain it was 0.0599 E-score; with GST-ATAF1 NAC domain, 0.0155 E-score; in [1], -0.0374 E-score; with GST-NAP(1-166), -0.0664 E-score; in the assay with GST-NST2(1-184), 0.026 E-score. For the same sequence, the binding signal in the assay with GST-VND3 NAC domain is 0.0465 E-score; in assay [2] it was 0.0823 E-score; with GST-WRKY1(266-371), 0.036 E-score.
Turning to ACGCGACC, the binding signal was -0.0533 E-score in the assay with GST-NTL6(1-168); -0.125 E-score with GST-ANAC055(1-171); -0.0194 E-score with GST-ATAF1 NAC domain; 0.0134 E-score in the assay with GST-NAP(1-166); 0.0199 E-score with GST-NTL8 NAC domain; -0.00204 E-score with GST-VND3 NAC domain. Besides, the binding signal with GST-VND7 NAC domain was determined as 0.0778 E-score; in assay [2], 0.0846 E-score.
For the sequence AGCGTCAA, the binding signal in the assay with GST-NTL6(1-168) was -0.0331 E-score; in the assay with GST-ANAC019 NAC domain it was -0.0415 E-score; with GST-ANAC055(1-171), -0.011 E-score; in the assay with GST-NAP(1-166), 0.0978 E-score; with GST-NTL8 NAC domain it was 0.12 E-score; with GST-VND3 NAC domain, 0.00976 E-score. Further, the binding signal with GST-VND7 NAC domain is 0.0921 E-score; in [2], 0.149 E-score.
With AAGAAACC, the binding signal was 0.246 E-score with GST-ANAC092(1-176); -0.0181 E-score in the assay with GST-NAP(1-166); 0.435 E-score with GST-NTL8 NAC domain; 0.0406 E-score with GST-VND3 NAC domain; 0.143 E-score in assay [2]; -0.0491 E-score with GST-WRKY1(266-371).
As for CCCCGCCC, the binding signal in the assay with GST-ANAC092(1-176) is 0.325 E-score; with GST-ANAC019 NAC domain, 0.329 E-score; with GST-ANAC055(1-171), 0.178 E-score; in [1] it was 0.343 E-score; in the assay with GST-NTL8 NAC domain, 0.372 E-score; with GST-VND3 NAC domain, -0.0225 E-score. In addition, the binding signal was 0.455 E-score in assay [2] and -0.0358 E-score with GST-WRKY1(266-371).
Regarding GTACGCGA, the binding signal was 0.245 E-score in the assay with GST-ANAC092(1-176); -0.0431 E-score in the assay with GST-NTL6(1-168); 0.0104 E-score in the assay with GST-ANAC019 NAC domain; 0.4 E-score in [1]; 0.188 E-score in the assay with GST-NAP(1-166); -0.0538 E-score in the assay with GST-NTL8 NAC domain. In addition, the binding signal is 0.11 E-score in the assay with GST-VND3 NAC domain, 0.154 E-score in assay [2] and -0.0135 E-score with GST-WRKY1(266-371).
As for ATTGCTTA, the binding signal is 0.423 E-score with GST-NTL6(1-168); -0.0471 E-score in the assay with GST-ANAC019 NAC domain; 0.00293 E-score in the assay with GST-ANAC055(1-171); 0.00324 E-score in the assay with GST-ATAF1 NAC domain; -0.0873 E-score with GST-NAP(1-166); 0.16 E-score with GST-VND3 NAC domain. Besides, the binding signal is -0.0816 E-score in assay [2] and -0.128 E-score in the assay with GST-WRKY1(266-371).
For the sequence TTACGGAA, the binding signal with GST-ANAC092(1-176) was determined as 0.266 E-score; with GST-NTL6(1-168) it was 0.151 E-score; with GST-ANAC055(1-171), 0.402 E-score; with GST-VND3 NAC domain, 0.442 E-score; in [2], 0.151 E-score; with GST-WRKY1(266-371) it was 0.126 E-score.
GTACGCAA: the binding signal in the assay with GST-ANAC092(1-176) is 0.482 E-score; in the assay with GST-NTL6(1-168) it was 0.121 E-score; in the assay with GST-ANAC019 NAC domain, 0.445 E-score; with GST-VND3 NAC domain, 0.413 E-score; in [2], 0.178 E-score; with GST-WRKY1(266-371) it was -0.113 E-score.
For the sequence GGCGTAAC, the binding signal was -0.176 E-score in the assay with GST-NTL6(1-168); 0.0194 E-score in the assay with GST-ANAC019 NAC domain; -0.0393 E-score in the assay with GST-ANAC055(1-171); 0.0594 E-score with GST-ATAF1 NAC domain; -0.0799 E-score in the assay with GST-NTL8 NAC domain; 0.0143 E-score with GST-VND3 NAC domain. Further, the binding signal was 0.0254 E-score in assay [2] and -0.0779 E-score in the assay with GST-WRKY1(266-371).
In the case of AAGGTAAC, the binding signal with GST-ANAC092(1-176) was 0.233 E-score; with GST-NTL6(1-168), 0.309 E-score; with GST-NAP(1-166), 0.151 E-score; with GST-NTL8 NAC domain, 0.441 E-score; in the assay with GST-VND3 NAC domain, 0.154 E-score; in assay [2] it was -0.0309 E-score. Moreover, in the assay with GST-WRKY1(266-371), the binding signal was -0.0269 E-score.
In the case of AATTACGC, the binding signal is 0.0398 E-score in the assay with GST-NTL6(1-168); -0.00422 E-score in the assay with GST-ANAC019 NAC domain; 0.18 E-score in the assay with GST-ATAF1 NAC domain; 0.144 E-score in the assay with GST-NAP(1-166); 0.199 E-score with GST-NST2(1-184); -0.0947 E-score in the assay with GST-NTL8 NAC domain. The binding signal with GST-VND3 NAC domain is 0.119 E-score; in assay [2], 0.187 E-score; with GST-WRKY1(266-371) it was -0.178 E-score.
In the case of ACGTTACA, the binding signal was 0.354 E-score with GST-ANAC092(1-176); -0.121 E-score with GST-NTL6(1-168); 0.0262 E-score with GST-ANAC019 NAC domain; 0.157 E-score with GST-ANAC055(1-171); -0.13 E-score with GST-NTL8 NAC domain; 0.217 E-score in the assay with GST-VND3 NAC domain. Further, the binding signal in assay [2] was 0.021 E-score; with GST-WRKY1(266-371), -0.181 E-score.
With TGACTTAA, the binding signal is 0.0109 E-score with GST-ANAC092(1-176); 0.342 E-score in the assay with GST-NTL6(1-168); -0.0328 E-score with GST-ANAC019 NAC domain; 0.0488 E-score with GST-ANAC055(1-171); 0.107 E-score with GST-ATAF1 NAC domain; -0.00155 E-score with GST-NAP(1-166). Besides, the binding signal in the assay with GST-NST2(1-184) was 0.183 E-score; with GST-NTL8 NAC domain, -0.0247 E-score; in the assay with GST-VND3 NAC domain it was -0.0386 E-score; in [2], 0.095 E-score; with GST-WRKY1(266-371) it was 0.427 E-score.
In the case of CGAAGCAA, the binding signal in the assay with GST-ANAC092(1-176) stood at 0.243 E-score; in the assay with GST-NTL6(1-168), 0.325 E-score; with GST-ANAC019 NAC domain, 0.0274 E-score; with GST-ANAC055(1-171), 0.0101 E-score; with GST-ATAF1 NAC domain it was 0.00551 E-score; in assay [1] it was 0.271 E-score. The binding signal with GST-NAP(1-166) is -0.00226 E-score; with GST-VND3 NAC domain, 0.0366 E-score; in assay [2], 0.0109 E-score; with GST-WRKY1(266-371), -0.031 E-score.
On to ACAAGTAA, for which the binding signal in the assay with GST-NTL6(1-168) is 0.25 E-score; with GST-ANAC019 NAC domain, 0.125 E-score; with GST-ATAF1 NAC domain it was 0.238 E-score; in assay [1] it was 0.439 E-score; with GST-NAP(1-166) it was 0.0135 E-score; with GST-NTL8 NAC domain, -0.071 E-score. Further, the binding signal is 0.249 E-score with GST-VND3 NAC domain, 0.0378 E-score in assay [2] and -0.0293 E-score with GST-WRKY1(266-371).
